According to the supplement of paper PMC8728848:
The other results are listed elsewhere or left out.

Assays:
Experiment in all cases: glycan array binding signal (z-score within array); higher = stronger binding
Settings in all cases: glycan notation: IUPAC condensed, linker removed
[1] = molecular target: Fuc(a1-2)[GalNAc(a1-3)]Gal(b1-3)GlcNAc(b1-3)GalNAc
In short: (§1)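 The binding signal is a Z-score computed within each array and averaged over linkers. Arrays of the same protein sequence at different concentrations or buffers were also averaged together. Data originate from 3228 arrays in the Consortium for Functional Glycomics database, kept only where the protein sequence was available.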

[2] = molecular target: Fuc(a1-2)[GalNAc(a1-3)]Gal(b1-3)GlcNAc(b1-6)GalNAc
In short: as §1

[3] = molecular target: Fuc(a1-2)[GalNAc(a1-3)]Gal(b1-4)Glc
In short: as §1

[4] = molecular target: Fuc(a1-2)[GalNAc(a1-3)]Gal(b1-4)GlcNAc
In short: as §1

[5] = molecular target: Fuc(a1-2)[GalNAc(a1-3)]Gal(b1-4)GlcNAc(b1-2)Man
In short: as §1

[6] = molecular target: Fuc(a1-2)[GalNAc(a1-3)]Gal(b1-4)GlcNAc(b1-2)Man(a1-3)[Fuc(a1-2)[GalNAc(a1-3)]Gal(b1-4)GlcNAc(b1-2)Man(a1-6)]Man(b1-4)GlcNAc(b1-4)GlcNAc
In short: as §1

[7] = molecular target: Fuc(a1-2)[GalNAc(a1-3)]Gal(b1-4)GlcNAc(b1-2)Man(a1-3)[Fuc(a1-2)[GalNAc(a1-3)]Gal(b1-4)GlcNAc(b1-2)Man(a1-6)]Man(b1-4)GlcNAc(b1-4)[Fuc(a1-6)]GlcNAc
In short: as §1

[8] = molecular target: Fuc(a1-2)[GalNAc(a1-3)]Gal(b1-4)GlcNAc(b1-3)Gal(b1-4)GlcNAc
In short: as §1

[9] = molecular target: Fuc(a1-2)[GalNAc(a1-3)]Gal(b1-4)GlcNAc(b1-3)Gal(b1-4)GlcNAc(b1-3)Gal(b1-4)GlcNAc
In short: as §1

[10] = molecular target: Fuc(a1-2)[GalNAc(a1-3)]Gal(b1-4)GlcNAc(b1-3)GalNAc
In short: as §1

[11] = molecular target: Fuc(a1-2)[GalNAc(a1-3)]Gal(b1-4)GlcNAc(b1-3)[Fuc(a1-2)[GalNAc(a1-3)]Gal(b1-4)GlcNAc(b1-6)]GalNAc
In short: as §1

[12] = molecular target: Fuc(a1-2)[GalNAc(a1-3)]Gal(b1-4)GlcNAc(b1-6)GalNAc
In short: as §1

[13] = molecular target: Fuc(a1-2)[GalNAc(a1-3)]Gal(b1-4)[Fuc(a1-3)]GlcNAc
In short: as §1

[14] = molecular target: Fuc(a1-2)[GalNAc(a1-3)]Gal(b1-4)[Fuc(a1-3)]GlcNAc(b1-3)GalNAc
In short: as §1

[15] = molecular target: Fuc(a1-2)[GalNAc(a1-4)]Gal(b1-4)GlcNAc
In short: as §1

[16] = molecular target: Fuc(a1-2)[GalNAc(b1-3)]Gal
In short: as §1

Fuc(a1-3)GlcNAc = molecular target: Fuc(a1-3)GlcNAc
In short: as §1

[17] = molecular target: Fuc(a1-3)[Gal(b1-4)]Glc6S
In short: as §1

[18] = molecular target: Fuc(a1-3)[Gal(b1-4)]GlcNAc
In short: as §1

[19] = molecular target: Fuc(a1-3)[Gal(b1-4)]GlcNAc(b1-2)Man
In short: as §1

[20] = molecular target: Fuc(a1-3)[Gal(b1-4)]GlcNAc(b1-2)Man(a1-3)[Fuc(a1-3)[Gal(b1-4)]GlcNAc(b1-2)Man(a1-6)]Man(b1-4)GlcNAc(b1-4)GlcNAc
In short: as §1

[21] = molecular target: Fuc(a1-3)[Gal(b1-4)]GlcNAc(b1-2)Man(a1-3)[Fuc(a1-3)[Gal(b1-4)]GlcNAc(b1-2)Man(a1-6)]Man(b1-4)GlcNAc(b1-4)[Fuc(a1-6)]GlcNAc
In short: as §1

[22] = molecular target: Fuc(a1-3)[Gal(b1-4)]GlcNAc(b1-3)Gal(b1-3)[Fuc(a1-4)]GlcNAc
In short: as §1

[23] = molecular target: Fuc(a1-3)[Gal(b1-4)]GlcNAc(b1-3)Gal(b1-4)[Fuc(a1-3)]GlcNAc
In short: as §1

[24] = molecular target: Fuc(a1-3)[Gal(b1-4)]GlcNAc(b1-3)Gal(b1-4)[Fuc(a1-3)]GlcNAc(b1-3)Gal(b1-4)[Fuc(a1-3)]GlcNAc
In short: as §1

[25] = molecular target: Fuc(a1-3)[Gal(b1-4)]GlcNAc(b1-3)GalNAc
In short: as §1

[26] = molecular target: Fuc(a1-3)[Gal(b1-4)]GlcNAc(b1-6)GalNAc
In short: as §1

[27] = molecular target: Fuc(a1-3)[Gal(b1-4)]GlcNAc(b1-6)[Gal(b1-3)GlcNAc(b1-3)]Gal(b1-4)Glc
In short: as §1

[28] = molecular target: Fuc(a1-3)[Gal(b1-4)]GlcNAc6S
In short: as §1

[29] = molecular target: Fuc(a1-3)[Gal3S(b1-4)]Glc
In short: as §1

[30] = molecular target: Fuc(a1-3)[Gal3S(b1-4)]GlcNAc
In short: as §1

[31] = molecular target: Fuc(a1-3)[Gal3S(b1-4)]GlcNAc6S
In short: as §1

[32] = molecular target: Fuc(a1-3)[GalNAc(b1-4)]GlcNAc
In short: as §1

[33] = molecular target: Fuc(a1-3)[GalNAc(b1-4)]GlcNAc6S
In short: as §1

Fuc(a1-4)GlcNAc = molecular target: Fuc(a1-4)GlcNAc
In short: as §1

Fuc(b1-3)GlcNAc = molecular target: Fuc(b1-3)GlcNAc
In short: as §1

Gal(a1-2)Gal = molecular target: Gal(a1-2)Gal
In short: as §1

Gal(a1-3)Gal = molecular target: Gal(a1-3)Gal
In short: as §1

Gal(a1-3)Gal(b1-3)GlcNAc = molecular target: Gal(a1-3)Gal(b1-3)GlcNAc
In short: as §1

[34] = molecular target: Gal(a1-3)Gal(b1-3)GlcNAc(b1-2)Man
In short: as §1

[35] = molecular target: Gal(a1-3)Gal(b1-3)GlcNAc(b1-2)Man(a1-3)[Gal(a1-3)Gal(b1-3)GlcNAc(b1-2)Man(a1-6)]Man(b1-4)GlcNAc(b1-4)GlcNAc
In short: as §1

[36] = molecular target: Gal(a1-3)Gal(b1-3)GlcNAc(b1-3)GalNAc
In short: as §1

[37] = molecular target: Gal(a1-3)Gal(b1-3)GlcNAc(b1-6)GalNAc
In short: as §1

[38] = molecular target: Gal(a1-3)Gal(b1-3)[Fuc(a1-4)]GlcNAc(b1-2)Man(a1-3)[Gal(a1-3)Gal(b1-3)[Fuc(a1-4)]GlcNAc(b1-2)Man(a1-6)]Man(b1-4)GlcNAc(b1-4)GlcNAc
In short: as §1

Gal(a1-3)Gal(b1-4)Glc = molecular target: Gal(a1-3)Gal(b1-4)Glc
In short: as §1

B1: CFEM-PPm (Pichia pastoris), F2QPV1 (protein)
chain: AVATPPACLLACAAEVVKESSDCDALNNIQCICENEGSAIHACLESTCPDGLSSTALQSFEDVCE
- glycan array binding signal (z-score) [1]: 0.656
- glycan array binding signal (z-score) [2]: -0.374
- glycan array binding signal (z-score) [3]: -0.138
- glycan array binding signal (z-score) [4]: -0.274
- glycan array binding signal (z-score) [5]: -0.313
- glycan array binding signal (z-score) [6]: -0.138
- glycan array binding signal (z-score) [7]: -0.267
- glycan array binding signal (z-score) [8]: -0.38
- glycan array binding signal (z-score) [9]: -0.265
- glycan array binding signal (z-score) [10]: -0.294
- glycan array binding signal (z-score) [11]: -0.055
- glycan array binding signal (z-score) [12]: -0.175
- glycan array binding signal (z-score) [13]: 0.032
- glycan array binding signal (z-score) [14]: 3.4
- glycan array binding signal (z-score) [15]: 0.238
- glycan array binding signal (z-score) [16]: -0.233
- glycan array binding signal (z-score) (Fuc(a1-3)GlcNAc): -0.301
- glycan array binding signal (z-score) [17]: -0.092
- glycan array binding signal (z-score) [18]: -0.068
- glycan array binding signal (z-score) [19]: -0.113
- glycan array binding signal (z-score) [20]: -0.141
- glycan array binding signal (z-score) [21]: -0.095
- glycan array binding signal (z-score) [22]: -0.258
- glycan array binding signal (z-score) [23]: -0.027
- glycan array binding signal (z-score) [24]: 0.134
- glycan array binding signal (z-score) [25]: 0.15
- glycan array binding signal (z-score) [26]: 1.19
- glycan array binding signal (z-score) [27]: -0.303
- glycan array binding signal (z-score) [28]: -0.002
- glycan array binding signal (z-score) [29]: -0.232
- glycan array binding signal (z-score) [30]: 0.069
- glycan array binding signal (z-score) [31]: 0.06
- glycan array binding signal (z-score) [32]: 0.055
- glycan array binding signal (z-score) [33]: -0.149
- glycan array binding signal (z-score) (Fuc(a1-4)GlcNAc): -0.28
- glycan array binding signal (z-score) (Fuc(b1-3)GlcNAc): -0.209
- glycan array binding signal (z-score) (Gal(a1-2)Gal): -0.447
- glycan array binding signal (z-score) (Gal(a1-3)Gal): -0.205
- glycan array binding signal (z-score) (Gal(a1-3)Gal(b1-3)GlcNAc): -0.035
- glycan array binding signal (z-score) [34]: -0.255
- glycan array binding signal (z-score) [35]: 0.425
- glycan array binding signal (z-score) [36]: -0.358
- glycan array binding signal (z-score) [37]: -0.449
- glycan array binding signal (z-score) [38]: -0.006
- glycan array binding signal (z-score) (Gal(a1-3)Gal(b1-4)Glc): -0.394
